Data reported in publication PMC4336329 (PLoS ONE, 2015).
About 14,000 (4.5%) of roughly 310,000 compounds showed an effect of 50% or more. The effect is printed as a negative number. This is one part of the list.

Target: human ether-à-go-go-related gene (hERG) potassium channel (human, UniProt Q12809)
Experiment: primary screen, population patch clamp on CHO cells stably expressing hERG
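Note: peak tail current of the secondary pulse compared with the same well before compound.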

Chain of human ether-à-go-go-related gene (hERG) potassium channel (Q12809 whole entry, looked up): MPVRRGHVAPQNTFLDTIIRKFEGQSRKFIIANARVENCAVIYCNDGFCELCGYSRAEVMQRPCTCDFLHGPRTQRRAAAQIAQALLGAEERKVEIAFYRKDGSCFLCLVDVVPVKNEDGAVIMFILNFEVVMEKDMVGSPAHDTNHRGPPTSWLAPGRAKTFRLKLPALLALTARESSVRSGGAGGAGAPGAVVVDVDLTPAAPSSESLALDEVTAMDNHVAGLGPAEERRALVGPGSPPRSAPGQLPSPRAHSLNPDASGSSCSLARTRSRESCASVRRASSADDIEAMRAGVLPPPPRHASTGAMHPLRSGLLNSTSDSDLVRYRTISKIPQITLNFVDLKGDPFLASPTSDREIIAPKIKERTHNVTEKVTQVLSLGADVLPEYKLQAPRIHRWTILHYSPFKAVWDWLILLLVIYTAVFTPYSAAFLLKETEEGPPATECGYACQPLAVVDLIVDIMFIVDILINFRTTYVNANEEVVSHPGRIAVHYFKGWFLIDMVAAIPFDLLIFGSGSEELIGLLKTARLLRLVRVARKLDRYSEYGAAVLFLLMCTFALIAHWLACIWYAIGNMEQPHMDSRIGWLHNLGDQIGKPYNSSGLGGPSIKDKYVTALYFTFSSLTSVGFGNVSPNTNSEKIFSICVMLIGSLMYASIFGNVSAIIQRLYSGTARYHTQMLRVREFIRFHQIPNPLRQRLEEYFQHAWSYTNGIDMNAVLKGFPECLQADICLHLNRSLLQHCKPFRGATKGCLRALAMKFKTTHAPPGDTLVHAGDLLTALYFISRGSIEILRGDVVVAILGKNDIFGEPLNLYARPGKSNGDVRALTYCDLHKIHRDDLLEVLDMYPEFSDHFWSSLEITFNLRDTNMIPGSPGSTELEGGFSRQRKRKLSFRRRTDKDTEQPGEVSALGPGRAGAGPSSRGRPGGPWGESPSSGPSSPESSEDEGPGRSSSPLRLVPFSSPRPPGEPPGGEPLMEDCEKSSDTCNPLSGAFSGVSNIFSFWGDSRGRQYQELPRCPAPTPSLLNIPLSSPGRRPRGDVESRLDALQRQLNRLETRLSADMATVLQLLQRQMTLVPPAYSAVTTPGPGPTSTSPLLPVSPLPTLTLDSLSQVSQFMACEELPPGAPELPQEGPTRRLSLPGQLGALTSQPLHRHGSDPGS

Row | SMILES | hERG current change (%, negative = inhibition) at 10uM
1 | COc1cccc(-n2cc(CN(C)Cc3nc(Cc4cccc(F)c4)no3)cn2)c1 | -10.3%
2 | Cc1cccc(CSC(=N)N)c1 | 1.28%
3 | Cc1ccc(NCC(=O)Nc2ccc(Br)cc2)cc1F | -0.784%
4 | COc1ccc(C(=O)C2CCCN(C(=O)c3ccc4nccnc4c3)C2)c(C)c1 (stereo not shown) | 1.53%
5 | CSCC[C@H](NC(=O)c1cccnc1)c1nnc2ccccn12 | 9.71%
6 | COc1ccc(CNC(=O)NC2CCCCC2)cc1 | 2.13%
7 | COCCN(C(=O)COC(=O)Cc1ccccc1)c1c(N)n(Cc2ccccc2)c(=O)[nH]c1=O | 15.7%
8 | O=C(COc1ccc(Br)cc1Br)NC(=S)Nc1cccc(CO)c1 | 5.84%
9 | CCCCOCCCNC(=O)C1c2ccccc2Oc2ccccc21 | 8.13%
10 | Fc1ccc(C2=CCN(C(c3cccs3)c3nnnn3CCc3ccccc3)CC2)cc1 (stereo not shown) | -0.341%
11 | COc1ccc([C@H]2CC(=O)C=C(c3ccc4ccccc4c3)C2)cc1OC | 13.9%
12 | Cc1cc(C)c(NC(=O)CN2CCCCCC2)c(C)c1 | -7.47%
13 | COc1ccc(NC(=O)CSc2ccc3c(c2)OCCO3)cc1OC | 15%
14 | Cc1ccc(CNC(=O)CNS(=O)(=O)c2ccc3c(c2)C(C)(C)C(=O)N3C)cc1 | -3.42%
15 | CCN(CC(=O)Nc1c(F)cccc1F)C(=O)CCOc1ccc(C)cc1 | -2.71%
16 | COC(=O)c1sccc1NC(=O)Nc1cccc(Cl)c1Cl | 10.9%
17 | CCC1CCCCN1CCCNC(=O)C1CCCN(c2ncnc3c2nc2n3CCCCC2)C1 (stereo not shown) | -0.0638%
18 | CC(C)(C)NC(=O)NC(=O)COC(=O)COc1ccc2c(c1)CCC2 | 0.441%
19 | CC12CN3CCN(CC(C3)/C1=N/NC(=O)Nc1ccccc1)C2 | 14.7%
20 | O=S(=O)(NCC(c1cccnc1)N1CCN(Cc2ccccc2)CC1)c1ccccc1 (stereo not shown) | -68.9%
21 | Cc1c(C(=O)[O-])oc2c1C(O)CC(C)(C)C2.[Na+] (stereo not shown) | 9.51%
22 | NC(=O)Cn1c(=O)oc2ccccc21 | 14.1%
23 | O=C(CSC(=S)N1CCOCC1)c1cc(Br)cc(Br)c1O | -17.3%
24 | CCCCN(Cc1ccccc1)C(=O)c1cnc2n(c1=O)CCS2 | -0.608%
25 | CN1CCC(NC(=O)c2cccc(Oc3ccccc3)c2)CC1 | -8.93%
